# Test results as given in paper PMC3585203.
# Sequences of proteins named here, by UniProt entry; tags and fusion partners are left off. A change or cut given only in a name is not applied to a line headed by its entry. A line that says so, or that is headed by a name, gives the form on record, which may keep a tag or linker. Residues count along the entry.
# Rvs167 241-482 (two-hybrid fusion) (P39743, residues 241-482): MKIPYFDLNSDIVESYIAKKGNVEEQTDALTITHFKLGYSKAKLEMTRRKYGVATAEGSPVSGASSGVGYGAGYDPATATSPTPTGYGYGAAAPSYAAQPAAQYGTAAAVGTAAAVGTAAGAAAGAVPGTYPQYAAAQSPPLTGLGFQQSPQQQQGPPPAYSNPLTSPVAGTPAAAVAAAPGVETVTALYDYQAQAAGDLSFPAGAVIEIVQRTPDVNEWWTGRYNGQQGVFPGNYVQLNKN
# SH3 domain of Rvs167 (expressed in E. coli) (P39743, residues 421-482): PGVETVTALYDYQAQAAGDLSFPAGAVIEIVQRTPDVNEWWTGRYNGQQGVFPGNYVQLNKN
# Rvs167-P473L (P39743, form named): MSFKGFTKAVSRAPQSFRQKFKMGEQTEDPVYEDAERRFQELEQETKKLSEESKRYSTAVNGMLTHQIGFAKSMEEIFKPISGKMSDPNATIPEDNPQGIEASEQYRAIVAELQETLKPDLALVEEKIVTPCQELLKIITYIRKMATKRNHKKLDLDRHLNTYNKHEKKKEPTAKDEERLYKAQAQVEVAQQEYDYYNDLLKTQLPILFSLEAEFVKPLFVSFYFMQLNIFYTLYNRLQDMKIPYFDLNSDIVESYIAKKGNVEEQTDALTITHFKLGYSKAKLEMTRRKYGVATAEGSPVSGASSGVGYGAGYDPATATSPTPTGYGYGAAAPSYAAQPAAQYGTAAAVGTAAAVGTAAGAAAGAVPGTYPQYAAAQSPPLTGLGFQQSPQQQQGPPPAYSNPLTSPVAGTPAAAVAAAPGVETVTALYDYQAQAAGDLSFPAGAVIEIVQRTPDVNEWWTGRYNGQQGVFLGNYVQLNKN
# Where two headings read alike, the source gives them in different places. Results are given in words; binding and its absence hold for the method and conditions named. For part of these data: In cells and extracts the contact can be indirect. Some results given as binding are weak or reduced against the parent protein; the word gives no strength. For part of these data: Tags and fused reporters may be left off the sequences shown.
# T1: Inn1 135-409 (expressed in E. coli) (S. cerevisiae) (UniProt P53901)
# T1 sequence: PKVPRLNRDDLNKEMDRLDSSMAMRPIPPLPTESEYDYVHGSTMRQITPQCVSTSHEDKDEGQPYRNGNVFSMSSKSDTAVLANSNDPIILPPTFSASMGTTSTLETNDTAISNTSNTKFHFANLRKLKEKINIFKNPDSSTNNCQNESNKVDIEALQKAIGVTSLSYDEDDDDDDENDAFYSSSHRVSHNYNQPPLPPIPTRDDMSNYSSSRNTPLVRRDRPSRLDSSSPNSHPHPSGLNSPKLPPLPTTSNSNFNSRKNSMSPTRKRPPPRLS
# T2: Inn1 135-409 (two-hybrid fusion) (S. cerevisiae) (UniProt P53901)
# T2 sequence: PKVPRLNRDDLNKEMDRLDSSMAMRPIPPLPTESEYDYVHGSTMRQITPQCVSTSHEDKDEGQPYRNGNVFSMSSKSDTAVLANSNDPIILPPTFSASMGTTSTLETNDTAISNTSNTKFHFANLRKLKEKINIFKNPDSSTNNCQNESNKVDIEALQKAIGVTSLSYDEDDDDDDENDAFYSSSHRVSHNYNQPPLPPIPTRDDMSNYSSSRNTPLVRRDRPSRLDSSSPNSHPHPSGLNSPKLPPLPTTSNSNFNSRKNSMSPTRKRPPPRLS
# T3: Inn1 (S. cerevisiae) (UniProt P53901)
# T3 sequence: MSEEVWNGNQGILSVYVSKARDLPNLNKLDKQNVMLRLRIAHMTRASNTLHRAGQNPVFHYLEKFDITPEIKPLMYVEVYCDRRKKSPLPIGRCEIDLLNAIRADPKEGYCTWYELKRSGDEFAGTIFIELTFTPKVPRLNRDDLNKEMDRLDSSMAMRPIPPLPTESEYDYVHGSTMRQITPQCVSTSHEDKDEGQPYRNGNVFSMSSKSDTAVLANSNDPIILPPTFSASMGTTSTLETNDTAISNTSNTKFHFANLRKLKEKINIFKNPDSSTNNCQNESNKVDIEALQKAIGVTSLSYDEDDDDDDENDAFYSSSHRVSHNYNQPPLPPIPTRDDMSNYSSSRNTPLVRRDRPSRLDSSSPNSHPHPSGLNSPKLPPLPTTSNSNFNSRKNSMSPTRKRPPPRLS
# Experiments:
# [1] = molecular target: T1, Inn1 135-409 (expressed in E. coli) (S. cerevisiae); assay: pull-down; fragments expressed individually in E. coli as 3-Streptag or 6His-tag fusions; pairs of cultures mixed; Streptag fusions isolated from the extract on Strep-Tactin Superflow, eluted with d-Desthiobiotin, then bound to Ni-NTA agarose and eluted with 250 mM imidazole; SDS-PAGE, colloidal Coomassie
# [2] = molecular target: T2, Inn1 135-409 (two-hybrid fusion) (S. cerevisiae); assay: two-hybrid; vectors pGADT7 and pGBKT7 (Clontech); cells grown 3 days at 30°C on Synthetic Complete medium lacking leucine and tryptophan (non-selective) or also lacking histidine (selective)
# Inn1 (S. cerevisiae) [3] = molecular target: T3, Inn1 (S. cerevisiae); assay: as above
# [4] = molecular target: T1, Inn1 135-409 (expressed in E. coli) (S. cerevisiae); assay: pull-down; fragments expressed individually in E. coli as 3-Streptag or 6His-tag fusions; pairs of cultures mixed; Streptag fusions isolated from the extract on Strep-Tactin Superflow, eluted with d-Desthiobiotin, then bound to Ni-NTA agarose and eluted with 250 mM imidazole; SDS-PAGE, colloidal Coomassie; remark: listed apart in the source
# Inn1 (S. cerevisiae) [5] = molecular target: T3, Inn1 (S. cerevisiae); assay: two-hybrid; vectors pGADT7 and pGBKT7 (Clontech); cells grown 3 days at 30°C on Synthetic Complete medium lacking leucine and tryptophan (non-selective) or also lacking histidine (selective); remark: listed apart in the source
molecule,measurement,setting,value
Rvs167 241-482 (expressed in E. coli) (from UniProt P39743 241-482) (domain or fragment),binding,[1],binds
Rvs167 241-482 (two-hybrid fusion) (from UniProt P39743 241-482) (domain or fragment),binding,[2],binds
Rvs167 (from UniProt P39743 1-482),binding,Inn1 (S. cerevisiae) [3],binds
Rvs167-P473L (from UniProt P39743 1-482),binding,Inn1 (S. cerevisiae) [3],no binding
SH3 domain of Rvs167 (expressed in E. coli) (from UniProt P39743 421-482) (domain or fragment),binding,[1],no binding
"SH3 domain of Hof1 (expressed in E. coli) (domain or fragment, UniProt Q05080 599-667) PVIEYAKAMYPLIGNEAPGLANFHKGDYLLITEIVNKDWYKGEVYDNDRIDRNHRIGLIPYNFIQLLHQ",binding,[4],binds
"SH3 domain of Cyk3 (expressed in E. coli) (domain or fragment, UniProt Q07533 9-70) KPPFKVKARYGWSGQTKGDLGFLEGDIMEVTRIAGSWFYGKLLRNKKCSGYFPHNFVILLEE",binding,[4],binds
"Abp1 (protein, UniProt P15891 1-592) MALEPIDYTTHSREIDAEYLKIVRGSDPDTTWLIISPNAKKEYEPESTGSSFHDFLQLFDETKVQYGLARVSPPGSDVEKIIIIGWCPDSAPLKTRASFAANFAAVANNLFKGYHVQVTARDEDDLDENELLMKISNAAGARYSIQTSSKQQGKASTPPVKKSFTPSKSPAPVSKKEPVKTPSPAPAAKISSRVNDNNDDDDWNEPELKERDFDQAPLKPNQSSYKPIGKIDLQKVIAEEKAKEDPRLVQKPTAAGSKIDPSSDIANLKNESKLKRDSEFNSFLGTTKPPSMTESSLKNDDDKVIKGFRNEKSPAQLWAERKAKQNSGNAETKAEAPKPEVPEDEPEGEPDVKDLKSKFEGLAASEKEEEEMENKFAPPPKKSEPTIISPKPFSKPQEPVKAEEAEQPKTDYKKIGNPLPGMHIEADNEEEPEENDDDWDDDEDEAAQPPLPSRNVASGAPVQKEEPEQEEIAPSLPSRNSIPAPKQEEAPEQAPEEEIEEEAEEAAPQLPSRSSAAPPPPPRRATPEKKPKENPWATAEYDYDAAEDNELTFVENDKIINIEFVDDDWWLGELEKDGSKGLFPSNYVSLGN",binding,Inn1 (S. cerevisiae) [5],no binding
"Lsb3 (protein, UniProt P43603 1-459) MGINNPIPRSLKSETKKAAKILASFVKPNQVFGADQVIPPDVLKRAKGLAIITILKAGFLFSGRAGSGVIVARLKDGTWSAPSAIAMAGAGAGGMVGIELTDFVFILNTQDAVKSFSEFGTITLGGNVSVSAGPLGRSAEAAASASAGGVAAVFAYSKSKGLFAGVSVEGSAIIERREANRKFYGDNCTAKMILSGRIRPPPAVDPLFRVLESRAFNYRPSNGGRGSFDDDEDDYYDDDDYYNDIPSSFSSTDASSTRPNTRSTRRRAQSGSRYTFDDDDDDDDYGTGYSRNSRLAPTNSGGSGGKLDDPSGASSYYASHRRSGTAQSRARSSRNRWADDEYDDYDDDYESGYRRGNGRDRTKDREVDDLSNRFSKSRISSASTPQTSQGRFTAPTSPSTSSPKAVALYSFAGEESGDLPFRKGDVITILKKSDSQNDWWTGRVNGREGIFPANYVELV",binding,Inn1 (S. cerevisiae) [5],no binding
